Experimental data from the supplement of paper PMC7125110.
± gives the standard error. Variants at the floor of the assay are shown more often than the library holds them.

B1: glmS ribozyme (parent)
chain: AUAAAAGCGCCAGAACUACAGAAAUGUAGUUGACGAGGAGGAGGUUUAUCGAAUUUUCGGCGGAUGCCUCCAAA

Tests used:
Details in all cases: with glucosamine-6-phosphate
[1] = variants of: B1; assay: self-cleavage kobs at 40 uM GlcN6P; higher = faster cleavage; RNA array
How it was run: (§1)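 A hybridised Cy3 probe tracked barcoded ribozyme variants, transcribed in situ by E. coli RNA polymerase on sequenced MiSeq chips, at 37 °C. The variants received 40 μM to 10 mM glucosamine-6-phosphate in HEPES/KCl/Mg(OAc)2 buffer. kobs came from decay fits and kcat and KM from weighted Michaelis–Menten fits.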

[2] = variants of: B1; assay: self-cleavage kobs at 640 uM GlcN6P; higher = faster cleavage; RNA array
How it was run: as §1

[3] = variants of: B1; assay: self-cleavage kobs at 160 uM GlcN6P; higher = faster cleavage; RNA array
How it was run: as §1

[4] = variants of: B1; assay: self-cleavage kobs at 2500 uM GlcN6P; higher = faster cleavage; RNA array
How it was run: as §1

[5] = variants of: B1; assay: self-cleavage kobs at 10000 uM GlcN6P; higher = faster cleavage; RNA array
How it was run: as §1

Variant	self-cleavage kobs at 40 uM GlcN6P [1]	self-cleavage kobs at 640 uM GlcN6P [2]	self-cleavage kobs at 160 uM GlcN6P [3]	self-cleavage kobs at 2500 uM GlcN6P [4]	self-cleavage kobs at 10000 uM GlcN6P [5]
G29A G43A	< 1e-05 s⁻¹	< 1e-05 s⁻¹	< 1e-05 s⁻¹	< 1e-05 s⁻¹	–
G29A G43U	< 1e-05 s⁻¹	< 1e-05 s⁻¹	–	< 1e-05 s⁻¹	< 1e-05 s⁻¹
G29A U30C A36C G44U U56C U57G	< 1e-05 s⁻¹	< 1e-05 s⁻¹	–	< 1e-05 s⁻¹	–
G29A U31C G43U	< 1e-05 s⁻¹	< 1e-05 s⁻¹	–	–	< 1e-05 s⁻¹
G29C A33G G38A G40C G43C	< 1e-05 s⁻¹	–	–	–	–
G29C A42G A53C C68A	< 1e-05 s⁻¹	–	–	–	–
G29C C58G	< 1e-05 s⁻¹	–	–	6.23e-05 ± 2.1e-05 s⁻¹	4.93e-05 ± 1.5e-05 s⁻¹
G29C G35A	< 1e-05 s⁻¹	< 1e-05 s⁻¹	< 1e-05 s⁻¹	< 1e-05 s⁻¹	< 1e-05 s⁻¹
G29C G40U G41U A52U	< 1e-05 s⁻¹	–	–	–	< 1e-05 s⁻¹
G29C G59C	< 1e-05 s⁻¹	< 1e-05 s⁻¹	–	–	< 1e-05 s⁻¹
G29C U30C	< 1e-05 s⁻¹	< 1e-05 s⁻¹	–	–	–
G29U A33G U65G	< 1e-05 s⁻¹	–	–	–	< 1e-05 s⁻¹
G29U A52C C71U	< 1e-05 s⁻¹	< 1e-05 s⁻¹	< 1e-05 s⁻¹	–	< 1e-05 s⁻¹
G29U A53G	0.000165 ± 2.5e-05 s⁻¹	0.000805 ± 0.00012 s⁻¹	0.000262 ± 5.4e-05 s⁻¹	0.0021 ± 0.00029 s⁻¹	0.00417 ± 0.00059 s⁻¹
G29U G35C	< 1e-05 s⁻¹	< 1e-05 s⁻¹	< 1e-05 s⁻¹	< 1e-05 s⁻¹	< 1e-05 s⁻¹
G29U G41C	< 1e-05 s⁻¹	–	< 1e-05 s⁻¹	–	–
G29U U49G	< 1e-05 s⁻¹	–	–	3.79e-05 ± 1.7e-05 s⁻¹	8.25e-05 ± 1.9e-05 s⁻¹
G29U U54C	0.000157 ± 3.1e-05 s⁻¹	0.00146 ± 0.00023 s⁻¹	0.000421 ± 6.8e-05 s⁻¹	0.00249 ± 0.00049 s⁻¹	0.00596 ± 0.0013 s⁻¹
U30A A39U	0.000191 ± 5.4e-05 s⁻¹	0.00188 ± 0.00036 s⁻¹	0.000401 ± 8.1e-05 s⁻¹	0.0022 ± 0.00046 s⁻¹	0.00745 ± 0.0016 s⁻¹
U30A A64C	< 1e-05 s⁻¹	–	< 1e-05 s⁻¹	–	–
U30A G59A G63A	< 1e-05 s⁻¹	–	–	–	–
U30C G38U G43C U46G	< 1e-05 s⁻¹	–	–	–	–

Variant	self-cleavage kobs at 40 uM GlcN6P [1]	self-cleavage kobs at 640 uM GlcN6P [2]	self-cleavage kobs at 160 uM GlcN6P [3]	self-cleavage kobs at 2500 uM GlcN6P [4]	self-cleavage kobs at 10000 uM GlcN6P [5]
U30C G40C	< 1e-05 s⁻¹	–	–	–	–
U30C G40C U49G G51A	< 1e-05 s⁻¹	–	–	–	< 1e-05 s⁻¹
U30C G43C C61A	< 1e-05 s⁻¹	–	–	–	< 1e-05 s⁻¹
U30C G59C	< 1e-05 s⁻¹	< 1e-05 s⁻¹	–	< 1e-05 s⁻¹	< 1e-05 s⁻¹
U30C U47C	< 1e-05 s⁻¹	–	< 1e-05 s⁻¹	–	–
U30G G38A	< 1e-05 s⁻¹	< 1e-05 s⁻¹	< 1e-05 s⁻¹	< 1e-05 s⁻¹	< 1e-05 s⁻¹
U31A A39U	0.000161 ± 2.9e-05 s⁻¹	0.00196 ± 0.00029 s⁻¹	0.000508 ± 8.4e-05 s⁻¹	0.00802 ± 0.0015 s⁻¹	0.00871 ± 0.0014 s⁻¹
U31A C34U	< 1e-05 s⁻¹	< 1e-05 s⁻¹	–	< 1e-05 s⁻¹	–
U31C A48C	< 1e-05 s⁻¹	–	–	–	–
U31C A48U U69A	< 1e-05 s⁻¹	< 1e-05 s⁻¹	–	–	< 1e-05 s⁻¹
U31C A52C	< 1e-05 s⁻¹	–	< 1e-05 s⁻¹	< 1e-05 s⁻¹	< 1e-05 s⁻¹
U31C A53G C70U	0.000212 ± 4.6e-05 s⁻¹	0.00265 ± 0.00055 s⁻¹	–	0.00272 ± 0.00079 s⁻¹	–
U31C C61U	< 1e-05 s⁻¹	< 1e-05 s⁻¹	–	–	–
U31C G38A U56C	< 1e-05 s⁻¹	–	–	–	< 1e-05 s⁻¹
U31C G44U C68A C71U	< 1e-05 s⁻¹	–	–	–	< 1e-05 s⁻¹
U31C U55C	8.92e-05 ± 2.1e-05 s⁻¹	0.00116 ± 0.00021 s⁻¹	0.000317 ± 6.4e-05 s⁻¹	0.00284 ± 0.00079 s⁻¹	0.00585 ± 0.00073 s⁻¹
U31G A48U	< 1e-05 s⁻¹	–	–	8.46e-05 ± 1.6e-05 s⁻¹	5.93e-05 ± 2.1e-05 s⁻¹
U31G G40U	3.85e-05 ± 7.6e-06 s⁻¹	0.000515 ± 5.8e-05 s⁻¹	0.000115 ± 1.6e-05 s⁻¹	0.00119 ± 0.00013 s⁻¹	0.00183 ± 0.0002 s⁻¹
U31G G43C	< 1e-05 s⁻¹	< 1e-05 s⁻¹	< 1e-05 s⁻¹	< 1e-05 s⁻¹	–
U31G G63A	< 1e-05 s⁻¹	< 1e-05 s⁻¹	< 1e-05 s⁻¹	< 1e-05 s⁻¹	< 1e-05 s⁻¹
U31G U54A	0.000582 ± 0.00015 s⁻¹	–	–	–	–
G32A G35C	< 1e-05 s⁻¹	–	< 1e-05 s⁻¹	< 1e-05 s⁻¹	< 1e-05 s⁻¹

Variant	self-cleavage kobs at 40 uM GlcN6P [1]	self-cleavage kobs at 640 uM GlcN6P [2]	self-cleavage kobs at 160 uM GlcN6P [3]	self-cleavage kobs at 2500 uM GlcN6P [4]	self-cleavage kobs at 10000 uM GlcN6P [5]
G32A G35U	< 1e-05 s⁻¹	< 1e-05 s⁻¹	< 1e-05 s⁻¹	–	< 1e-05 s⁻¹
G32A G38U	< 1e-05 s⁻¹	< 1e-05 s⁻¹	< 1e-05 s⁻¹	< 1e-05 s⁻¹	–
G32A G59U	< 1e-05 s⁻¹	< 1e-05 s⁻¹	–	–	–
G32A G62C	< 1e-05 s⁻¹	< 1e-05 s⁻¹	–	< 1e-05 s⁻¹	< 1e-05 s⁻¹
G32C G40A	< 1e-05 s⁻¹	–	< 1e-05 s⁻¹	–	1.99e-05 ± 7.3e-06 s⁻¹
G32C G40A C50U C68A	< 1e-05 s⁻¹	–	–	–	–
G32C U46A U49A	< 1e-05 s⁻¹	–	–	–	< 1e-05 s⁻¹
G32C U56C	< 1e-05 s⁻¹	< 1e-05 s⁻¹	< 1e-05 s⁻¹	–	–
G32C U65G	< 1e-05 s⁻¹	< 1e-05 s⁻¹	–	–	–
G32U A36U A52C	< 1e-05 s⁻¹	–	–	< 1e-05 s⁻¹	–
G32U C34G	< 1e-05 s⁻¹	–	–	–	–
G32U C61U C67A	< 1e-05 s⁻¹	< 1e-05 s⁻¹	–	–	< 1e-05 s⁻¹
G32U G37U G60C	< 1e-05 s⁻¹	–	–	–	–
G32U G41C	< 1e-05 s⁻¹	–	< 1e-05 s⁻¹	–	–
A33C C67A	< 1e-05 s⁻¹	–	–	< 1e-05 s⁻¹	–
A33C G38C G44U	< 1e-05 s⁻¹	–	–	< 1e-05 s⁻¹	< 1e-05 s⁻¹
A33C G41C	< 1e-05 s⁻¹	< 1e-05 s⁻¹	< 1e-05 s⁻¹	< 1e-05 s⁻¹	< 1e-05 s⁻¹
A33C G62U	< 1e-05 s⁻¹	–	–	< 1e-05 s⁻¹	< 1e-05 s⁻¹
A33C U46C C58G	< 1e-05 s⁻¹	–	–	–	–
A33G A36G U45G A53G	< 1e-05 s⁻¹	–	–	< 1e-05 s⁻¹	< 1e-05 s⁻¹
A33G A39G	< 1e-05 s⁻¹	< 1e-05 s⁻¹	< 1e-05 s⁻¹	–	< 1e-05 s⁻¹
A33G A39U U54A	< 1e-05 s⁻¹	–	–	–	< 1e-05 s⁻¹

Variant	self-cleavage kobs at 40 uM GlcN6P [1]	self-cleavage kobs at 640 uM GlcN6P [2]	self-cleavage kobs at 160 uM GlcN6P [3]	self-cleavage kobs at 2500 uM GlcN6P [4]	self-cleavage kobs at 10000 uM GlcN6P [5]
A33G C58U	< 1e-05 s⁻¹	–	–	< 1e-05 s⁻¹	< 1e-05 s⁻¹
A33G C67U	< 1e-05 s⁻¹	–	–	–	< 1e-05 s⁻¹
A33G G43A	< 1e-05 s⁻¹	–	–	–	< 1e-05 s⁻¹
A33G U45G U54G C61U	< 1e-05 s⁻¹	–	–	–	< 1e-05 s⁻¹
A33G U47A	< 1e-05 s⁻¹	–	–	–	–
A33G U55G	< 1e-05 s⁻¹	–	< 1e-05 s⁻¹	< 1e-05 s⁻¹	< 1e-05 s⁻¹
A33G U65G	< 1e-05 s⁻¹	< 1e-05 s⁻¹	< 1e-05 s⁻¹	< 1e-05 s⁻¹	< 1e-05 s⁻¹
A33U A53C	< 1e-05 s⁻¹	< 1e-05 s⁻¹	–	< 1e-05 s⁻¹	< 1e-05 s⁻¹
A33U G35A U65A	< 1e-05 s⁻¹	–	–	–	–
A33U G37U U69A	< 1e-05 s⁻¹	–	–	–	–
C34A A64C C70U	< 1e-05 s⁻¹	–	–	–	< 1e-05 s⁻¹
C34A G35A G59C C61G	< 1e-05 s⁻¹	–	–	–	< 1e-05 s⁻¹
C34A G35U G37A U49A U56C	< 1e-05 s⁻¹	–	–	–	–
C34A G62U	< 1e-05 s⁻¹	< 1e-05 s⁻¹	–	< 1e-05 s⁻¹	–
C34A G63C	< 1e-05 s⁻¹	< 1e-05 s⁻¹	< 1e-05 s⁻¹	< 1e-05 s⁻¹	< 1e-05 s⁻¹
C34G A53G U56G C67U	< 1e-05 s⁻¹	–	–	–	–
C34G C58A	< 1e-05 s⁻¹	< 1e-05 s⁻¹	< 1e-05 s⁻¹	< 1e-05 s⁻¹	< 1e-05 s⁻¹
C34G C61U	< 1e-05 s⁻¹	–	< 1e-05 s⁻¹	< 1e-05 s⁻¹	< 1e-05 s⁻¹
C34G G44A	< 1e-05 s⁻¹	< 1e-05 s⁻¹	< 1e-05 s⁻¹	< 1e-05 s⁻¹	< 1e-05 s⁻¹
C34G G51U	< 1e-05 s⁻¹	–	< 1e-05 s⁻¹	–	< 1e-05 s⁻¹
C34G G60C	< 1e-05 s⁻¹	< 1e-05 s⁻¹	< 1e-05 s⁻¹	< 1e-05 s⁻¹	< 1e-05 s⁻¹
